The values that follow come from paper PMC12136788.

Some of the results follow.

The chains are these.
B1: chr12:493273:493274:-_ENSG00000073614_ENST00000399788|hu_mus|hu_hu_hu_mus_False|38_88 (ssRNA)
RNA: GGGAGUUCUACAGUCCGACGAUCUUUUCUCUCCACCACAGGGAUCUUCAGAGUAGAUCCUUGAAGUUCCCAAAAUUUUGCCAGUUGAUCCAAGAAGUCCAAUCUCACUCUAGUCAUUGCCUCAAGUUCAUUCAGGCGCUGGACCAACAGAGGAUUGAGCAUCA
B2: chr6:15520614:15520615:+_ENSG00000008083_ENST00000341776|hu_hu|motif|central (ssRNA)
RNA: GGGAGUUCUACAGUCCGACGAUCUUUUCUAAGUACAAAAAAAAGUUCAACAGUUUAAUGCUAAAACAAAAUUAGUUCUCGGAAACCAGAAGAAAAUCUUCUUUAGAGCUAGUGCAAAGACAGCUUGAAUCCUACAGCAAGUACCAACAGAGGAUUGAGCAUCA
B3: chr12:76570751:76570752:-_ENSMUSG00000021051_ENSMUST00000021447|perfect_dup|motif|central (ssRNA)
RNA: GGGAGUUCUACAGUCCGACGAUCUGUUUCAUAAACAAACCUUAGAAAAAUAUUGUUAAUCUGUUUUCGGAUAAAUGCUCGGAGACCAAGAAACUUGCCAUAAAUUCUGUGUAAGACUGUUUUUAAGUAGUCCCGUUCCCGAGGCAACAGAGGAUUGAGCAUCA
B4: chr9:58050066:58050067:-_ENSMUSG00000051243_ENSMUST00000163897|mus_mus|FALSE|FALSE (ssRNA)
RNA: GGGAGUUCUACAGUCCGACGAUCGGGACCUGCUGAACUGCGCUGCCUGGCUCUCCCGGACCCUUUUCCUCCUGCCGCCUGCUAGCCUCCCCCUCCCCGAAGCUUCGUUCAACACGAUGCAUAAUUGAUAGUGUUAGCAGAACGCAACAGAGGAUUGAGCAUCA
B5: chr14:57521723:57521724:+_ENSMUSG00000021945_ENSMUST00000022511|mus_hu|FALSE|FALSE (ssRNA)
RNA: GGGAGUUCUACAGUCCGACGAUCUACAGGUUCGAUAAAAACAACAUCAUCAUCAUCUUCCACUGACGAGUUCUGAAACUUAUUAGAUCUAGACACUAAAGGAUUAGCUGGACCACUAAAUGAGUUUCCUACAUUCGUGAGACUCAACAGAGGAUUGAGCAUCA
B6: chr17:35253193:35253194:-_ENSMUSG00000024387_ENSMUST00000025246|mus_hu|FALSE|FALSE (ssRNA)
RNA: GGGAGUUCUACAGUCCGACGAUCCCUUUUCUUCUACUUUAUUUCAUAUUCCCACCACGAUAACGACUCCUUUAAUUUAAACUAAAAACCAUACAGGGUUCCUGAAAGGGUGGCAAAAAAGAAAGGAAAAGUCAAAGACUGCAGCAACAGAGGAUUGAGCAUCA
B7: chr2:9570881:9570882:+_ENSG00000119203_ENST00000238112|hu_mus|hu_hu_hu_mus_False|58_108 (ssRNA)
RNA: GGGAGUUCUACAGUCCGACGAUCACUUGUCUUCUGUAGGAACCAGGGCAGGGCUCCACAGUGAUCCAAAUGGAAAUGACUAAUUAACAGAAGGUCGAUCUCAGCUGGGUCGAUAAGGUCAAUGUAAGGAAGGGCAUCCAUUCCCAACAGAGGAUUGAGCAUCA
B8: chr12:39763582:39763583:-_ENSG00000139116_ENST00000544797|hu_mus|hu_hu_hu_mus_False|1_88 (ssRNA)
RNA: GGGAGUUCUACAGUCCGACGAUCCUCUAGGAACUGGGCAUUCACUUUAAAAUCUGGAGGGGGCAGCCCGUUUUUAAUCGCUGAGGUCUUUUUCUCAUCAAUACUCUUGAACAGGUGUCUAACAGCACGAGAGAUGAUACCCAGCAACAGAGGAUUGAGCAUCA
B9: 5780615_5780735_1026_CDS_ENSG00000011275_ENST00000425013|human|control|control (ssRNA)
RNA: GGGAGUUCUACAGUCCGACGAUCUAGUAGUUCAACGAGCUCUUGAUCUACCUCUGCAGCUUCUUGCCCCCAAAUGUUUUCCAAAUUGGGCUCUUGAGAUUCUUGCAUUGGAAAGGCUGGACCUGGCUCUUCAUCAUCACUUGCCAACAGAGGAUUGAGCAUCA
B10: chr8:117878989:117878990:-_ENSG00000164754_ENST00000297338|hu_hu|hu_hu_hu_mus_True|8_18 (ssRNA)
RNA: GGGAGUUCUACAGUCCGACGAUCCCAGAGGCCCUCGUUUACUGAGGACAAAAUGUGCGUAGAACAUUUUUCUUAUUUGCUAUGAAAUAAGAAGAAACCUGGAUCUCGGCGGGGAGCUUGGGCGGGCUGGGUGGCCCGGGAGGGCAACAGAGGAUUGAGCAUCA
B11: chr6:146598974:146598975:+_ENSMUSG00000030291_ENSMUST00000032429|mus_hu|FALSE|FALSE (ssRNA)
RNA: GGGAGUUCUACAGUCCGACGAUCCUGAUUCAAUCAUGAUUUUAUAAGCUUAUCAAGAGUGAAAAUAGAAGACUAUUAAAAAUAGCUAAAAAGGUAAUGUGUCAUAGUGUUUAAUGUUUCUGUAAUUGUUGGUAAGGCUUGUAUCAACAGAGGAUUGAGCAUCA
B12: 18861418_18861648_5666_CDS_ENSG00000157106_ENST00000446231|human|control|control (ssRNA)
RNA: GGGAGUUCUACAGUCCGACGAUCCAGCCUAGGGUCAUCCUCAUCUAAAGGAAUUUGACCAGCGUUGAGUUUAAGGAAAGUAAAGUAUGCACUGCAAGAGAGUUUGUACAGGCUGAAUAUUCUAUCUACAACUUUCCUCCACACCAACAGAGGAUUGAGCAUCA
B13: chr8:74585381:74585382:-_ENSG00000040341_ENST00000355780|hu_hu|FALSE|FALSE (ssRNA)
RNA: GGGAGUUCUACAGUCCGACGAUCAGGCACUGGGCAAUGAUACCUCUGAUUGUACAUGCCCCGAAAGUUGUAAUUAGCUCUAUAAUUUGGGAAUGGCUUUGGAUCUAAUGGCCUGUAGAUGGCAGGCUCUCCCCUUUUCAUAGCCAACAGAGGAUUGAGCAUCA
B14: chr1:225611761:225611762:-_ENSG00000143815_ENST00000272163|hu_mus|hu_hu_hu_mus_True|78_78 (ssRNA)
RNA: GGGAGUUCUACAGUCCGACGAUCCCAGGCCAUCGGCCUCUGACCACUUCACCCUCAGCAAAUUUCCUACUUGGCAUUUUCUAAAAUUAGUCUGGCCGCGCUCCGGCGGGAACUCCAGCCACUCCAGGACAGUCACCAGCAGCCCAACAGAGGAUUGAGCAUCA
B15: 36909150_36920067_489_CDS_ENSMUSG00000024811_ENSMUST00000025729|mouse|control|control (ssRNA)
RNA: GGGAGUUCUACAGUCCGACGAUCACCGUUCUGAAGAAGAUAUUCAACUACAUCCUUCCGUCCAAAACCUGCGGCGAAGUGGAGCGGGGUGGACUUCCUGCCCGCCGUGUCGCGGCUGUUCACCUUCUCGGGCGUCACCAGCCUCAACAGAGGAUUGAGCAUCA
B16: chr12:67699843:67699844:+_ENSG00000111530_ENST00000544619|hu_hu|FALSE|FALSE (ssRNA)
RNA: GGGAGUUCUACAGUCCGACGAUCAAUAAACUGACCUACUACAGCUGGUCCCUCUUUAGGGCAUGCUCGAGUAAGGGCAGCUACACAUUUGGCAAUGGAAUAAUAAGACUGCUUAUGAGUAAGAGCUGUGCUCUGAGAGUAAACCAACAGAGGAUUGAGCAUCA
B17: 118343347_118343467_1556_CDS_ENSG00000118058_ENST00000534358|human|control|control (ssRNA)
RNA: GGGAGUUCUACAGUCCGACGAUCAUACCUUCUGCUUCUCCUAUCAUUACUCUCAUUUUCUGGGGACUGGGAAAUGGGCAGUGGAGGAUGAACUUCAGGGGUAUCGCUCCGCUCCUCAGGAAGUACCUGAAUCUCCUCAGAAGCCAACAGAGGAUUGAGCAUCA
B18: 108559751_108563533_1152_CDS_ENSMUSG00000032846_ENSMUST00000105097|mouse|control|control (ssRNA)
RNA: GGGAGUUCUACAGUCCGACGAUCGGCCCCAUUGGAGUCUCUCAUCUUCAACAUCUCCCGCACCUUUGCAAAGAGCAUGUUGAGCUGCUUUCCUGACCCGUGGUACCCUCCCUGGGAGAGGAACACUUUCACCUGUUCUUGCACCAACAGAGGAUUGAGCAUCA
B19: chr4:17845017:17845018:+_ENSG00000109805_ENST00000514176|hu_mus|hu_hu_hu_mus_False|88_98 (ssRNA)
RNA: GGGAGUUCUACAGUCCGACGAUCGCUCUCUUAACUUGAUCUUCAUUGAGAAAUUGGUGCAAGGUUAAGUUUACUUUUCUGUAGCGCAGCUGUUUUGGCUCGUCUGGGUAAUCUCAUCUUCAUUUCUGAUGGUGGUUCAUGAUCCAACAGAGGAUUGAGCAUCA
B20: 33609145_33623031_1095_CDS_ENSG00000100991_ENST00000252015|human|control|control (ssRNA)
RNA: GGGAGUUCUACAGUCCGACGAUCGAACACAAUGGAGGCUUGAUUGUGCUCUGACUCCUCAUUGGCCACUCGCAUCAGGGCAUCUAGCACCAAAGCAUUGUCUAGCCAUGUGUACCACUCUUCCAACUCCUGAAGGAAGCUGGCCAACAGAGGAUUGAGCAUCA
B21: chr2:216981417:216981418:+_ENSG00000079246_ENST00000392132|hu_hu|hu_hu_hu_mus_True|68_98 (ssRNA)
RNA: GGGAGUUCUACAGUCCGACGAUCCUGAUACUGGUCCCCACCAGAAAGGGCAUUAUCAGUGCCAUCUGUACCAAACAGGACUAACGCAAUCUCAUCUUUGCUCUCCGAAAAUACCUGUCGUUGGACAAACAUAGUCAUCACUUUCAACAGAGGAUUGAGCAUCA
B22: chr4:148551591:148551592:-_ENSMUSG00000063077_ENSMUST00000060537|mus_hu|mus_mus_mus_hu_False|1_8 (ssRNA)
RNA: GGGAGUUCUACAGUCCGACGAUCACCUGACAAAAUUAAAUAUCCCUGUAAAUUAGACAAUAAGCAGCAGGCAACAAAGUCUUUGCUUUGGAAUAUGUGCCAGGAAAAGUCAUCUUGUUUUUAGAUCACACCUUUCACAACCAUCAACAGAGGAUUGAGCAUCA

In the assay the target is T1, UNK ZnF1-3 (human, UniProt Q9C0B0 31-174).
T1 sequence: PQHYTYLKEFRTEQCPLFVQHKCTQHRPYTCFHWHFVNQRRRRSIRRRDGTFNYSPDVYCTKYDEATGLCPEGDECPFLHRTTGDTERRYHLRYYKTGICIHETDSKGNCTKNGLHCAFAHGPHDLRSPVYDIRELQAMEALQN
Briefly: nsRBNS (natural sequence RNA bind-n-seq); RBNS binding buffer (assumed for nsRBNS): 25 mM Tris pH 7.5, 150 mM KCl, 3 mM MgCl2, 0.01% Triton X-100, 500 ug/ml BSA, 20 U/ml SUPERase-In, 4 C; UNK is unkempt and MSI1 is Musashi-1; names of the RNAs are library labels; protein concentration not given here; high values mean tight binding.
As for B1, the binding signal amounted to 0.988 enrichment R.

The molecule B2 displayed a binding signal of 0.986 enrichment R.

The molecule B3 had a binding signal of 1.29 enrichment R.

In turn, B4 registered a binding signal of 1.19 enrichment R.

For B5, the binding signal turned out to be 0.739 enrichment R.

As to B6, the binding signal stood at 1.65 enrichment R.

Turning to B7, the binding signal worked out at 1.26 enrichment R.

On to B8, for which the binding signal was 1.28 enrichment R.

For B9, the binding signal worked out at 0.835 enrichment R.

The molecule B10 came in with a binding signal of 1.12 enrichment R.

In turn, B11 had a binding signal of 2.18 enrichment R.

Molecule B12 yielded a binding signal of 1.36 enrichment R.

With B13, the binding signal amounted to 0.929 enrichment R.

Turning to B14, the binding signal came to 1.28 enrichment R.

Take B15: the binding signal amounted to 0.71 enrichment R.

As for B16, the binding signal came out at 0.846 enrichment R.

With B17, the binding signal amounted to 1.1 enrichment R.

As to B18, the binding signal is 0.538 enrichment R.

Molecule B19 came in with a binding signal of 0.427 enrichment R.

As for B20, the binding signal was 1.09 enrichment R.

The molecule B21 had a binding signal of 0.885 enrichment R.

The molecule B22 showed a binding signal of 1.33 enrichment R.
